Laboratory results: the supplement of paper PMC4604168 (melanoma cell lines)
This is one part of the list. Many values rest on one well or one pass, so single values are uncertain.

How the values were obtained:
Assay in all cases: cell count relative to DMSO control; melanoma cells; higher = more viable cells
Conditions in all cases: library dose: standard library concentration; 72 h
SkMel28 = system: SkMel28
SkMel2 = system: SkMel2
SkMel30 = system: SkMel30
SkMel5 = system: SkMel5
UACC257 = system: UACC257
UACC62 = system: UACC62
WM115 = system: WM115
WM1716 = system: WM1716
WM1745 = system: WM1745
WM3526 = system: WM3526
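Further: cells treated in 1,536-well plates, then fixed and DAPI-stained, with nuclei counted from automated high-throughput microscope images.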

SMILES | cell count (SkMel28) | cell count (SkMel2) | cell count (SkMel30) | cell count (SkMel5) | cell count (UACC257) | cell count (UACC62) | cell count (WM115) | cell count (WM1716) | cell count (WM1745) | cell count (WM3526)
Cc1cc(Nc2cc(N3CCN(C)CC3)nc(/C=C/c3ccccc3)n2)n[nH]1 + COc1ccc(Cl)c(Nc2nc3ccccc3nc2NS(=O)(=O)c2cccc(NC(=O)C(C)(C)N)c2)c1 [XL147] (first compound 0.2 µM, partner dose 4 µM) | 36.7% | 75.4% | 71.8% | 76.5% | 78.2% | 71.5% | 66.2% | 69.9% | 86.4% | 62.3%
COc1ccc(C2=N[C@@H](c3ccc(Cl)cc3)[C@@H](c3ccc(Cl)cc3)N2C(=O)N2CCNC(=O)C2)c(OC(C)C)c1 [Nutlin-3] + C[C@@H](Oc1cc(-c2cnn(C3CCNCC3)c2)cnc1N)c1c(Cl)ccc(F)c1Cl [Crizotinib] (first compound 0.5 µM, partner dose 1 µM) | 46.4% | 101% | 82.9% | 66.2% | 60.1% | 50.4% | 51.9% | 57% | 60.5% | 104%
Cc1cn(-c2cc(NC(=O)c3ccc(C)c(Nc4nccc(-c5cccnc5)n4)c3)cc(C(F)(F)F)c2)cn1 [nilotinib] + Cc1ccc(NC(=O)c2cccc(N(C)C)c2)cc1NC(=O)c1ccc(O)cc1 [ZM336372] (first compound 1 µM, partner dose 10 µM) | 74.4% | 113% | 107% | 89.6% | 105% | 97.9% | 88.4% | 103% | 70.2% | 106%
Cc1cc(Nc2cc(N3CCN(C)CC3)nc(/C=C/c3ccccc3)n2)n[nH]1 + O=C(O)c1ccc2c(c1)nc(Nc1cccc(Cl)c1)c1ccncc12 [CX4945] (first compound 0.2 µM, partner dose 2 µM) | 55% | 68.6% | 70.4% | 71.8% | 74.5% | 54% | 60.7% | 84.5% | 56.3% | 55.4%
COc1ccc(C2=N[C@@H](c3ccc(Cl)cc3)[C@@H](c3ccc(Cl)cc3)N2C(=O)N2CCNC(=O)C2)c(OC(C)C)c1 [Nutlin-3] + CC(=O)O[C@@]12CO[C@@H]1C[C@H](O)[C@@]1(C)C(=O)[C@H](O)C3=C(C)[C@@H](OC(=O)[C@H](O)[C@@H](NC(=O)OC(C)(C)C)c4ccccc4)C[C@@](O)([C@@H](OC(=O)c4ccccc4)[C@H]21)C3(C)C [Docetaxel] (first compound 0.5 µM, partner dose 0.0005 µM) | 17.4% | 18.7% | 40.8% | 31.2% | 67% | 40.5% | 38.9% | 37.6% | 36.3% | 35.8%
CC(C)C[C@H](NC(=O)[C@H](Cc1ccccc1)NC(=O)c1cnccn1)B(O)O [Bortezomib] + C=CCNC1=C2C[C@@H](C)C[C@H](OC)[C@H](O)[C@@H](C)/C=C(\C)[C@H](OC(N)=O)[C@@H](OC)/C=C\C=C(/C)C(=O)NC(=CC1=O)C2=O [Tanespimycin] (first compound 0.005 µM, partner dose 0.01 µM) | 19.2% | 46.8% | 27.6% | 31.2% | 63.2% | 73.5% | 25.3% | 18.7% | 14.6% | 23.4%
CC(C)C[C@H](NC(=O)[C@H](Cc1ccccc1)NC(=O)c1cnccn1)B(O)O [Bortezomib] + Clc1ccc(Nc2nnc(Cc3ccncc3)c3ccccc23)cc1 [vatalanib] (first compound 0.005 µM, partner dose 10 µM) | 12.6% | 35.1% | 26.3% | 20.9% | 66.2% | 56.2% | 20.2% | 13.9% | 5.19% | 30.2%
Cc1cn(-c2cc(NC(=O)c3ccc(C)c(Nc4nccc(-c5cccnc5)n4)c3)cc(C(F)(F)F)c2)cn1 [nilotinib] + Cc1nc(Nc2ncc(C(=O)Nc3c(C)cccc3Cl)s2)cc(N2CCN(CCO)CC2)n1 [dasatanib] (first compound 1 µM, partner dose 0.02 µM) | 69.3% | 117% | 88.3% | 56.1% | 73.2% | 59.6% | 55.9% | 62.3% | 42.7% | 82.3%
COc1ccc(C2=N[C@@H](c3ccc(Cl)cc3)[C@@H](c3ccc(Cl)cc3)N2C(=O)N2CCNC(=O)C2)c(OC(C)C)c1 [Nutlin-3] + Cn1cncc1[C@@](N)(c1ccc(Cl)cc1)c1ccc2c(c1)c(-c1cccc(Cl)c1)cc(=O)n2C [tipifarnib] (first compound 0.5 µM, partner dose 0.05 µM) | 44.2% | 64.9% | 98.5% | 60.7% | 73.3% | 55.9% | 52.9% | 59.5% | 77.5% | 84.6%
Cc1cn(-c2cc(NC(=O)c3ccc(C)c(Nc4nccc(-c5cccnc5)n4)c3)cc(C(F)(F)F)c2)cn1 [nilotinib] + Cn1c(Nc2ccc(C(F)(F)F)cc2)nc2cc(Oc3ccnc(-c4ncc(C(F)(F)F)[nH]4)c3)ccc21 [CHIR265] (first compound 1 µM, partner dose 0.4 µM) | 35.4% | 56.4% | 82.8% | 32.2% | 80.3% | 47.1% | 38.7% | 60.8% | 42% | 41.1%
Cc1cc(Nc2cc(N3CCN(C)CC3)nc(/C=C/c3ccccc3)n2)n[nH]1 + O=C(CCCCCCC(=O)Nc1ccccc1)NO [vorinostat] (first compound 0.2 µM, partner dose 0.4 µM) | 39.2% | 62.2% | 93.4% | 62.1% | 82% | 73.3% | 41.8% | 83.2% | 37.9% | 76.7%
Cc1cn(-c2cc(NC(=O)c3ccc(C)c(Nc4nccc(-c5cccnc5)n4)c3)cc(C(F)(F)F)c2)cn1 [nilotinib] + COc1cc2c(Oc3ccc4[nH]c(C)cc4c3F)ncnc2cc1OCCCN1CCCC1 [cediranib] (first compound 1 µM, partner dose 2 µM) | 157% | 98.1% | 119% | 66% | 103% | 63.3% | 77.9% | 104% | 76.4% | 89.8%
Cc1cn(-c2cc(NC(=O)c3ccc(C)c(Nc4nccc(-c5cccnc5)n4)c3)cc(C(F)(F)F)c2)cn1 [nilotinib] + CO[C@H]1C[C@@H]2CC[C@@H](C)[C@@](O)(O2)C(=O)C(=O)N2CCCC[C@H]2C(=O)O[C@H]([C@H](C)C[C@@H]2CC[C@@H](OCCO)[C@H](OC)C2)CC(=O)[C@H](C)/C=C(\C)[C@@H](O)[C@@H](OC)C(=O)[C@H](C)C[C@H](C)/C=C/C=C/C=C/1C [everolimus] (first compound 1 µM, partner dose 0.1 µM) | 47.3% | 73.8% | 74.1% | 57.1% | 113% | 49.5% | 52.4% | 76.2% | 63.3% | 60.6%
CC(C)C[C@H](NC(=O)[C@H](Cc1ccccc1)NC(=O)c1cnccn1)B(O)O [Bortezomib] + Cc1nc(Nc2ncc(C(=O)Nc3c(C)cccc3Cl)s2)cc(N2CCN(CCO)CC2)n1 [dasatanib] (first compound 0.005 µM, partner dose 0.02 µM) | 30.5% | 43.6% | 35.1% | 34.4% | 84.6% | 47.1% | 32.5% | 19.2% | 15.5% | 19.7%
Cn1c(=O)n(-c2ccc(C(C)(C)C#N)cc2)c2c3cc(-c4cnc5ccccc5c4)ccc3ncc21 + C=CCn1c(=O)c2cnc(Nc3ccc(N4CCN(C)CC4)cc3)nc2n1-c1cccc(C(C)(C)O)n1 [MK1775] (first compound 0.02 µM, partner dose 0.1 µM) | 21.8% | 54.1% | 66.8% | 40.3% | 88.6% | 63.7% | 50.1% | 72.1% | 46.7% | 52.5%
COc1ccc(C2=N[C@@H](c3ccc(Cl)cc3)[C@@H](c3ccc(Cl)cc3)N2C(=O)N2CCNC(=O)C2)c(OC(C)C)c1 [Nutlin-3] + Cc1nc(Nc2ncc(C(=O)Nc3c(C)cccc3Cl)s2)cc(N2CCN(CCO)CC2)n1 [dasatanib] (first compound 0.5 µM, partner dose 0.02 µM) | 42.4% | 87% | 80.5% | 57.7% | 84.7% | 69.4% | 60.6% | 55.2% | 50.1% | 76.7%
Cc1cn(-c2cc(NC(=O)c3ccc(C)c(Nc4nccc(-c5cccnc5)n4)c3)cc(C(F)(F)F)c2)cn1 [nilotinib] + CC(=O)O[C@@]12CO[C@@H]1C[C@H](O)[C@@]1(C)C(=O)[C@H](O)C3=C(C)[C@@H](OC(=O)[C@H](O)[C@@H](NC(=O)OC(C)(C)C)c4ccccc4)C[C@@](O)([C@@H](OC(=O)c4ccccc4)[C@H]21)C3(C)C [Docetaxel] (first compound 1 µM, partner dose 0.0005 µM) | 11.4% | 12.4% | 35.3% | 29.6% | 58.8% | 39.3% | 35.6% | 31.2% | 25.8% | 31.3%
Cc1cn(-c2cc(NC(=O)c3ccc(C)c(Nc4nccc(-c5cccnc5)n4)c3)cc(C(F)(F)F)c2)cn1 [nilotinib] + COc1ccc(C2=N[C@@H](c3ccc(Cl)cc3)[C@@H](c3ccc(Cl)cc3)N2C(=O)N2CCNC(=O)C2)c(OC(C)C)c1 [Nutlin-3] (first compound 1 µM, partner dose 0.5 µM) | 59.1% | 76.7% | 95.6% | 50.1% | 81.7% | 57.6% | 70.8% | 71.6% | 77.5% | 81.5%
Cc1cc(Nc2cc(N3CCN(C)CC3)nc(/C=C/c3ccccc3)n2)n[nH]1 + C=CCNC1=C2C[C@@H](C)C[C@H](OC)[C@H](O)[C@@H](C)/C=C(\C)[C@H](OC(N)=O)[C@@H](OC)/C=C\C=C(/C)C(=O)NC(=CC1=O)C2=O [Tanespimycin] (first compound 0.2 µM, partner dose 0.01 µM) | 34.9% | 112% | 77.8% | 61% | 81.3% | 64.7% | 25.5% | 83.7% | 48.4% | 60.5%
Cc1cc(Nc2cc(N3CCN(C)CC3)nc(/C=C/c3ccccc3)n2)n[nH]1 + Cn1c(=O)n(-c2ccc(C(C)(C)C#N)cc2)c2c3cc(-c4cnc5ccccc5c4)ccc3ncc21 [NVP-BEZ235] (first compound 0.2 µM, partner dose 0.02 µM) | 56.1% | 65.4% | 77.8% | 59.5% | 87.8% | 75.3% | 52.6% | 77.5% | 60.9% | 68.5%
Cc1cn(-c2cc(NC(=O)c3ccc(C)c(Nc4nccc(-c5cccnc5)n4)c3)cc(C(F)(F)F)c2)cn1 [nilotinib] + CC(C)(C)c1cnc(CSc2cnc(NC(=O)C3CCNCC3)s2)o1 [SNS-032] (first compound 1 µM, partner dose 0.05 µM) | 47% | 88.1% | 100% | 78.2% | 111% | 63.2% | 68.9% | 90.4% | 89.1% | 89.5%
